Reference: PubChem BioAssay AID2451 (National Center for Advancing Translational Sciences (NCATS), 2010)
Screen size: about 290,000 compounds; about 2,100 (0.72%) were called active. Inconclusive means that the source gave no clear call. Such entries were picked first, then a sample of the others. Calls follow the shape of the dose curve; as a rule, active = well fitted inhibition curve with a large enough effect; inconclusive = small, poorly fitted or top-dose-only effect, or effect the other way; inactive = flat fitted curve, though single readings scatter. A potency beside an inconclusive call is a rough fit, not a confirmed value.

molecular target: Fructose-bisphosphate aldolase (Giardia intestinalis (strain ATCC 50803 / WB clone C6)) (UniProt A8B2U2); test: qHTS Assay for Inhibitors of Fructose-1,6-bisphosphate Aldolase from Giardia Lamblia; settings: purified Giardia FBPA; activity, negative = inhibition: at 59.6 µM (top of the series) unless noted; also: nearly all actives have a fitted effect of over 55% in size
UniProt A8B2U2, sequence (A8B2U2 whole entry, looked up): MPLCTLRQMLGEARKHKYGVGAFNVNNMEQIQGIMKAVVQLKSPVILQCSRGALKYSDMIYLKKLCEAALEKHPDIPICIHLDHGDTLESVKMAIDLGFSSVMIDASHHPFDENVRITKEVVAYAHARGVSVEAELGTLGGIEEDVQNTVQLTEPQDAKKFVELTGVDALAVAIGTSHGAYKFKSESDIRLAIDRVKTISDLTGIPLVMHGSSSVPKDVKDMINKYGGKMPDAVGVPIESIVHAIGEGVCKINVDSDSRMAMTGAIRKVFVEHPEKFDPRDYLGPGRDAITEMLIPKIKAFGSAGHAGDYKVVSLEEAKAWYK
How it was run: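 Giardia FBPA (40 nM reagent) was preincubated 10 min at RT with compound (up to 57.5 uM final), then substrate plus GAPDH/TPI/NAD/arsenate coupling system with diaphorase/resazurin was added; resorufin fluorescence (525/598 nm) was read after 20 min.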
% is scaled to controls: 0 for no effect and ±100 for the full control effect; potency is read from the fitted curve at half-maximal effect; tags tell the direction and shape of the fitted curve.

Row | Compound | Potency | activity, negative = inhibition
1 | NNC(=S)Nc1ccccc1Cl | inconclusive: 15.8 µM [inhibitor, single point] | 
2 | Cc1cccc(-n2c(O)c(/C=C3/C(c4ccccc4)=Nc4ccccc43)c(=O)[nH]c2=O)c1 |  | inactive: 1.36%
3 | Oc1ccccc1/C=N/Nc1nn[nH]n1 | inconclusive: 1.77 µM [inhibitor, full curve] | 
4 | COc1ccc(CC(=O)Nc2ccc(C(=O)Nc3nccs3)cc2)cc1OC |  | inactive: 2.21%
5 | CCCC(=O)Nc1cc(=O)[nH]c2ncnn12 | inconclusive: 20 µM [inhibitor, single point] | 
6 | C=C(C)COc1ccc(-c2nc(N)nc(C(F)(F)F)c2-c2ccc(OC)cc2)c(O)c1 |  | inactive: -10.8%
7 | COc1cc(CNCCNC(=O)c2cccs2)cc(OC)c1OC | inconclusive: 9.98 µM [inhibitor, partial curve] | 
8 | CC(=O)Nc1ccc(S(=O)(=O)Nc2cc(C)cn(Cc3ccc(C)cc3)c2=O)cc1 | inconclusive: 14.1 µM [inhibitor, partial curve] | 
9 | CCSc1oc(-c2ccco2)nc1S(=O)(=O)c1ccc(F)cc1 | inconclusive: 19.9 µM [inhibitor, single point] | 
10 | Cn1c(=O)c2[nH]c(N=Nc3ccc(N)cc3N)nc2n(C)c1=O | inconclusive: 25.1 µM [inhibitor, partial curve] | 
11 | NS(=O)(=O)c1ccc(NC(=S)NNC(=O)CCC(=O)Nc2ccccc2Cl)cc1 | inconclusive: 28.2 µM [inhibitor, partial curve] | 
12 | CC(=C/C(=O)O)/C=C/c1ccc([N+](=O)[O-])cc1 |  | inactive: -1.36%
13 | O=C(CN1CCCCCC1)Nc1cccc(NC(=O)CN2CCCCCC2)c1 |  | inconclusive: 51.2% [activator]
14 | Cc1ccc(-c2nnn(CCC(=O)NC(C)(C)C)n2)cc1 |  | inactive: 2.69%
15 | C[C@@]12CC(=O)NC1N(C(=O)c1ccccc1)C(c1ccccc1OC(=O)c1ccccc1)C2 (some centres not stated) |  | inactive: 0.0628%
16 | COc1cc(OC)c(/C=N/n2c(C3CCCCC3)n[nH]c2=S)c(OC)c1 |  | inactive: 0.693%
17 | Cc1ccc(CSc2nc3c(c(SCC(=O)O)n2)CCCC3)cc1 | inconclusive: 19.9 µM [activator, single point] | 
18 | N/C(=N\OC(=O)Cc1ccc([N+](=O)[O-])cc1)c1ccccn1 | inconclusive: 17.7 µM [inhibitor, single point] | 
19 | CC1CCCN(Cc2ccc(OCc3ccccc3)cc2)C1 (configuration not stated) |  | inactive: -19.9%
20 | CSc1nsc(SCc2cnc(C)nc2N)n1 |  | inactive: -15.6%
21 | COc1ccccc1N1CCN(CCN2C(=O)C3CCCCN3C2=O)CC1 (configuration not stated) | inconclusive: 17.8 µM [inhibitor, single point] | 
22 | CC(C)N(Cc1ccccc1)C(C)C (tested in a mixture with another compound) |  | inactive: 0.6%
23 | COCCCNc1nc(-c2ccc(Cl)cc2)nc2ccccc12 |  | inactive: 3.56%
24 | C=CCNC(=S)N1CCN(c2ccccc2Cl)CC1 | inconclusive: 3.55 µM [inhibitor, full curve] | 

Row | Compound | Potency | activity, negative = inhibition
25 | COc1ccc(N=C2C(=O)N3CCCc4cccc2c43)cc1 | inconclusive: 1.12 µM [inhibitor, full curve] | 
26 | C/C(CC(=O)Nc1ccc2c(c1)OCCO2)=N\NC(=O)c1ccccn1 | inconclusive: 14.1 µM [inhibitor, partial curve] | 
27 | Cc1ccc(S(=O)(=O)N2CCCC(C(=O)N3CCN(C)CC3)C2)cc1 (configuration not stated) | inconclusive: 17.8 µM [inhibitor, partial curve] | 
28 | Cc1[nH]c2ccccc2c1C(=O)CN1CCCCC1CCO (configuration not stated) | inconclusive: 22.3 µM [inhibitor, single point] | 
29 | O=C(N/N=C/c1ccccn1)c1ccc([N+](=O)[O-])cc1 | inconclusive: 3.15 µM [inhibitor, full curve] | 
30 | COC(=O)c1ccc(CNC(=O)C(NC(=O)c2ccco2)C(C)C)cc1 (configuration not stated) | inconclusive: 28.2 µM [inhibitor, partial curve] | 
31 | Nc1nc(=S)c2ncn(C3CCCC3)c2[nH]1 | active: 7.06 µM | 
32 | CC(=O)c1cccc(N(CC(=O)NC2CCCCC2)C(=O)CNC(=O)c2cccs2)c1 |  | inactive: 10.8%
33 | CN(C)c1ccc(NC(N)=S)cc1 |  | inactive: -10.3%
34 | Cc1ccc(NC(=S)Nc2ccc3nc(-c4ccccn4)c(-c4ccccn4)nc3c2)cc1C | active: 1.26 µM | 
35 | Cc1cc2nn(-c3ccc(F)cc3)nc2cc1N | inconclusive: 28.2 µM [inhibitor, partial curve] | 
36 | CC(C)(C)c1ccc(C2=CSC3=NCCN23)cc1 | inconclusive: 39.8 µM [inhibitor, single point] | 
37 | COc1ccc(C2C3=C(Nc4ncnn42)c2ccccc2CC3)cc1OC (configuration not stated) | inconclusive: 12.6 µM [inhibitor, partial curve] | 
38 | CCOC(=O)c1n[nH]n2c1nc(=O)c1ccccc12 | inconclusive: 15.8 µM [inhibitor, partial curve] | 
39 | Cc1nc(N)sc1-c1csc(Nc2cccc(C(=O)O)c2)n1 | active: 17.8 µM | 
40 | O=C(/C=C/c1ccc(O)c(O)c1)O[C@H](Cc1ccc(O)c(O)c1)C(=O)O | inconclusive: 17.7 µM [inhibitor, single point] | 
41 | CCC1=C(OC(=O)N(CC)CC)N2C(=O)OC(=NCCc3c[nH]c4ccccc34)[C@]2(Cc2ccccc2)[C@H]2C1=CC[C@H]1C(=O)N(c3ccccc3)C(=O)[C@H]12 | inactive | 
42 | O=C(O)c1ccc(N2C(=O)c3cccnc3C2=O)cc1 | inconclusive: 14.1 µM [inhibitor, partial curve] | 
43 | CCCN(CCO)CCCc1ccccc1 | inconclusive: 14.1 µM [inhibitor, partial curve] | 
44 | COc1cc(CNc2ccc(O)cc2)cc(Br)c1OCc1ccccc1F | active: 15.8 µM | 
45 | CCn1cc(C(=O)O)c(=O)c2cc(F)c(N3CCN(C(=S)NC(=O)c4ccccc4)CC3)cc21 | inconclusive: 15.8 µM [inhibitor, single point] | 
46 | S=c1[nH]nc(-c2n[nH]c3c2CCC3)n1/N=C/C=C/c1ccco1 | inconclusive: 7.92 µM [inhibitor, partial curve] | 
47 | CCCCC1(c2ccc(F)cc2)NC(=O)N(CC(=O)N2CCN(C(=O)c3ccco3)CC2)C1=O (configuration not stated) |  | inactive: 1.36%
